In all, about 81,000 sequences were measured (“one-hybrid fitness for binding NBS DNA”: median about -0.1, highest 2% from about 0.36 on). The list shows a part of the results.
B1: Caulobacter ParB omega fusion; a variant is named by its letters at X, in order, B8GW30 (parent)
chain: MESVVVGEPGMSEGRRGLGRGLSALLGEVDAAPAQAPGEQLGGSREAPIEILQRNPDQPRRTFREEDLEDLSNSIREKGVLQPILVRPSPDTAGEYQIVAGERAWRAAQRAGLKTVPIMVRELDDLAVLEIGIIENVQRADLNVLEEALSYKVLMEKFERTQENIAQTIGKSXSHVANXMRLLXLPDEVQSYLVSGELTAXHARAIAAAADPVALAKQIIEGGLSVRETEALARKAPNLSAGKSKGGRPPRVKDTDTQALESDLSSVLGLDVSIDHRGSTGTLTITYATLEQLDDLCNRLTRGI

Variants of: B1
Assay: one-hybrid fitness for binding NBS DNA (the Noc-binding site; scaled: cognate 1, non-cognate 0); higher = stronger binding
Conditions: with NBS DNA site
In short: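 Caulobacter ParB libraries with four specificity codons randomised were screened by bacterial one-hybrid selection in the E. coli USO strain, using a HIS3 reporter whose site lies 19 bp from the promoter. Selection ran for 48 hours at 37°C on M9 lacking histidine, with 0.1 mM IPTG and 5 mM 3-AT. Plasmids were Illumina-sequenced before and after selection, three replicate libraries were pooled, and variants with under 10 reads were dropped. Fitness is the log change in each variant's read ratio to wild type, rescaled against the cognate and non-cognate sites.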

| Variant | one-hybrid fitness for binding NBS DNA |
| --- | --- |
| DPYH | ≤ 0.2 |
| QSPI | ≤ 0.2 |
| DIVS | ≤ 0.2 |
| RREH | 0.296 |
| QHTQ | ≤ 0.2 |
| YNRT | ≤ 0.2 |
| RERA | ≤ 0.2 |
| NDYP | ≤ 0.2 |
| WWPD | ≤ 0.2 |
| MVQT | ≤ 0.2 |
| NYTI | ≤ 0.2 |
| RQRM | ≤ 0.2 |
| WISC | ≤ 0.2 |
| NSML | ≤ 0.2 |
| RITE | ≤ 0.2 |
| WEPW | ≤ 0.2 |
| LPYL | ≤ 0.2 |
| LFMW | ≤ 0.2 |
| QCQY | 0.265 |
| RPCL | ≤ 0.2 |
| FRDK | ≤ 0.2 |
| RFIP | ≤ 0.2 |
| MEGG | ≤ 0.2 |
| RQTY | ≤ 0.2 |

| Variant | one-hybrid fitness for binding NBS DNA |
| --- | --- |
| TYPI | ≤ 0.2 |
| KDGW | ≤ 0.2 |
| SYSI | ≤ 0.2 |
| SKCS | ≤ 0.2 |
| VNPF | ≤ 0.2 |
| GAHA | ≤ 0.2 |
| LRLP | ≤ 0.2 |
| NKNG | ≤ 0.2 |
| DQTT | ≤ 0.2 |
| NCPE | ≤ 0.2 |
| GINY | ≤ 0.2 |
| FMSR | ≤ 0.2 |
| VANC | ≤ 0.2 |
| WKHT | ≤ 0.2 |
| MSHS | ≤ 0.2 |
| APGM | ≤ 0.2 |
| CHKD | ≤ 0.2 |
| PEWT | ≤ 0.2 |
| PIVK | ≤ 0.2 |
| AKSV | ≤ 0.2 |
| VRHG | ≤ 0.2 |
| RHDM | ≤ 0.2 |
| RQWK | ≤ 0.2 |
| WAYI | ≤ 0.2 |

| Variant | one-hybrid fitness for binding NBS DNA |
| --- | --- |
| HYDG | ≤ 0.2 |
| GRWE | ≤ 0.2 |
| SPPD | ≤ 0.2 |
| KRHK | ≤ 0.2 |
| HTQC | ≤ 0.2 |
| GYCG | ≤ 0.2 |
| SKKI | ≤ 0.2 |
| QSLT | 0.327 |
| RRRM | 0.651 |
| NWCR | ≤ 0.2 |
| DTAQ | ≤ 0.2 |
| PNNS | ≤ 0.2 |
| MHSL | ≤ 0.2 |
| QKNK | ≤ 0.2 |
| LSFM | ≤ 0.2 |
| TRIS | ≤ 0.2 |
| RTRE | ≤ 0.2 |
| LWTG | ≤ 0.2 |
| KLPS | ≤ 0.2 |
| THFY | ≤ 0.2 |
| STSV | ≤ 0.2 |
| VDCC | ≤ 0.2 |
| ALQV | ≤ 0.2 |
| PRLY | ≤ 0.2 |

| Variant | one-hybrid fitness for binding NBS DNA |
| --- | --- |
| NGAL | ≤ 0.2 |
| IISC | ≤ 0.2 |
| SFTL | ≤ 0.2 |
| KQWG | ≤ 0.2 |
| AAHM | ≤ 0.2 |
| DCEV | ≤ 0.2 |
| LWSG | ≤ 0.2 |
| YVSQ | ≤ 0.2 |
| NQWP | ≤ 0.2 |
| TIDK | ≤ 0.2 |
| SMRC | ≤ 0.2 |
| WPST | ≤ 0.2 |
| PMRC | ≤ 0.2 |
| IHPR | ≤ 0.2 |
| FDVD | ≤ 0.2 |
| RSES | ≤ 0.2 |
| LFME | ≤ 0.2 |
| ALRQ | ≤ 0.2 |
| WQSG | ≤ 0.2 |
| SWYT | ≤ 0.2 |
| AALP | ≤ 0.2 |
| GSHK | ≤ 0.2 |
| GSNS | ≤ 0.2 |
| VCQS | ≤ 0.2 |

| Variant | one-hybrid fitness for binding NBS DNA |
| --- | --- |
| FYPK | ≤ 0.2 |
| PAYK | ≤ 0.2 |
| RESA | ≤ 0.2 |
| SLMM | ≤ 0.2 |
| ARVW | ≤ 0.2 |
| DAIR | ≤ 0.2 |
| CMPL | ≤ 0.2 |
| MRMS | ≤ 0.2 |
| YMLG | ≤ 0.2 |
| PHIL | ≤ 0.2 |
| IPCT | ≤ 0.2 |
| QLRI | 0.237 |
| GNHL | ≤ 0.2 |
| NGYI | ≤ 0.2 |
| LENG | ≤ 0.2 |
| PFKA | ≤ 0.2 |
| ANHT | ≤ 0.2 |
| PTQL | ≤ 0.2 |
| SSWR | ≤ 0.2 |
| FRHL | ≤ 0.2 |
| TQQN | ≤ 0.2 |
| AWYS | ≤ 0.2 |
| CAVL | ≤ 0.2 |
| AMYL | ≤ 0.2 |

| Variant | one-hybrid fitness for binding NBS DNA |
| --- | --- |
| NNLS | ≤ 0.2 |
| ARQT | ≤ 0.2 |
| QCYW | ≤ 0.2 |
| GTCC | ≤ 0.2 |
| VSHY | ≤ 0.2 |
| TWAT | ≤ 0.2 |
| EDKG | ≤ 0.2 |
| CCES | ≤ 0.2 |
| TTPS | ≤ 0.2 |
| PSHE | ≤ 0.2 |
| MGHR | ≤ 0.2 |
| ELAC | ≤ 0.2 |
| RMAA | ≤ 0.2 |
| DRLC | ≤ 0.2 |
| RPKV | ≤ 0.2 |
| YAMC | ≤ 0.2 |
| ATFT | ≤ 0.2 |
| YWSR | ≤ 0.2 |
| RCKY | 0.318 |
| AWLV | ≤ 0.2 |
| IVKK | ≤ 0.2 |
| ICYT | ≤ 0.2 |
| ISAN | ≤ 0.2 |
| MLGP | ≤ 0.2 |

| Variant | one-hybrid fitness for binding NBS DNA |
| --- | --- |
| YFKC | ≤ 0.2 |
| VKNS | ≤ 0.2 |
| WAPQ | ≤ 0.2 |
| AQSH | ≤ 0.2 |
| CFSS | ≤ 0.2 |
| RFWG | ≤ 0.2 |
| LLCE | ≤ 0.2 |
| PVKH | ≤ 0.2 |
| PLKV | ≤ 0.2 |
| EFLA | ≤ 0.2 |
| PALR | 0.208 |
| PNLG | ≤ 0.2 |
| EDAV | ≤ 0.2 |
| AMPV | ≤ 0.2 |
| PLQH | ≤ 0.2 |
| VVRM | ≤ 0.2 |
| LTGT | ≤ 0.2 |
| SNRL | ≤ 0.2 |
| AALS | ≤ 0.2 |
| EPWR | ≤ 0.2 |
| YGRR | ≤ 0.2 |
| QRCE | 0.223 |
| ALGF | ≤ 0.2 |
| WQPV | ≤ 0.2 |

| Variant | one-hybrid fitness for binding NBS DNA |
| --- | --- |
| PDAC | ≤ 0.2 |
| IVTL | ≤ 0.2 |
| DEKT | ≤ 0.2 |
| QTIR | 0.499 |
| DNPY | ≤ 0.2 |
| QAHS | 0.398 |
| NPSR | ≤ 0.2 |
| QAIT | 0.291 |
| QHAW | ≤ 0.2 |
| KQRG | ≤ 0.2 |
| WWAM | ≤ 0.2 |
| QMRQ | 0.437 |
| VNDV | ≤ 0.2 |
| AVSV | ≤ 0.2 |
| KNQK | ≤ 0.2 |
| KSSR | ≤ 0.2 |
| AWYW | ≤ 0.2 |
| FRVG | ≤ 0.2 |
| KKYC | ≤ 0.2 |
| VSCG | ≤ 0.2 |
| EAVS | ≤ 0.2 |
| KHYR | ≤ 0.2 |
| SHKE | ≤ 0.2 |
| MMAC | ≤ 0.2 |

| Variant | one-hybrid fitness for binding NBS DNA |
| --- | --- |
| ADPH | ≤ 0.2 |
| HQES | ≤ 0.2 |
| NQRM | ≤ 0.2 |
| YTLW | ≤ 0.2 |
| KLHA | ≤ 0.2 |
| EAKV | ≤ 0.2 |
| GSFV | ≤ 0.2 |
| ISVG | ≤ 0.2 |
| STYI | ≤ 0.2 |
| RTVQ | 0.321 |
| PPHL | ≤ 0.2 |
| GYHN | ≤ 0.2 |
| ARHF | ≤ 0.2 |
| RCGE | ≤ 0.2 |
| QHSA | ≤ 0.2 |
| ETPL | ≤ 0.2 |
| IRSS | ≤ 0.2 |
| AFTC | ≤ 0.2 |
| TCTS | ≤ 0.2 |
| DYHC | ≤ 0.2 |
| RGDC | ≤ 0.2 |
| GSKW | ≤ 0.2 |
| RTNW | ≤ 0.2 |
| APSA | ≤ 0.2 |

| Variant | one-hybrid fitness for binding NBS DNA |
| --- | --- |
| NPFG | ≤ 0.2 |
| QWSH | ≤ 0.2 |
| ILYK | ≤ 0.2 |
| RQMY | ≤ 0.2 |
| TPIP | ≤ 0.2 |
| TRPK | ≤ 0.2 |
| ARQS | ≤ 0.2 |
| QTYY | 0.262 |
| NSMT | ≤ 0.2 |
| IYSI | ≤ 0.2 |
| ASNE | ≤ 0.2 |
| TWRR | ≤ 0.2 |
| QGHY | ≤ 0.2 |
| KPHL | ≤ 0.2 |
| MCLS | ≤ 0.2 |
| PKKT | ≤ 0.2 |
| QHTK | ≤ 0.2 |
| ARDR | ≤ 0.2 |
| NHSL | ≤ 0.2 |
| YLLT | ≤ 0.2 |
| GYTA | ≤ 0.2 |
| TQIS | ≤ 0.2 |
| LKSI | ≤ 0.2 |
| SHTE | ≤ 0.2 |

| Variant | one-hybrid fitness for binding NBS DNA |
| --- | --- |
| AVAS | ≤ 0.2 |
| LEVG | ≤ 0.2 |
| KNVG | ≤ 0.2 |
| VLKT | ≤ 0.2 |
| GLGA | ≤ 0.2 |
| VLTR | ≤ 0.2 |
| ILTC | ≤ 0.2 |
| TVQC | ≤ 0.2 |
| PCRA | ≤ 0.2 |
| RAYP | ≤ 0.2 |
| GIVR | ≤ 0.2 |
| DEPC | ≤ 0.2 |
| TPKI | ≤ 0.2 |
| LLCP | ≤ 0.2 |
| MSEH | ≤ 0.2 |
| TTRR | 0.378 |
| AQVV | ≤ 0.2 |
| SGMS | ≤ 0.2 |
| PCRL | ≤ 0.2 |
| GCQA | ≤ 0.2 |
| ISVS | ≤ 0.2 |
| GKQR | ≤ 0.2 |
| FYFS | ≤ 0.2 |
| PEDM | ≤ 0.2 |

| Variant | one-hybrid fitness for binding NBS DNA |
| --- | --- |
| EPVV | ≤ 0.2 |
| RCTA | 0.238 |
| AGRN | ≤ 0.2 |
| TFLQ | ≤ 0.2 |
| ATVI | ≤ 0.2 |
| LQMC | ≤ 0.2 |
| RENS | ≤ 0.2 |
| CRMS | ≤ 0.2 |
| DARN | ≤ 0.2 |
| EPYW | ≤ 0.2 |
| PNWV | ≤ 0.2 |
| PCTS | ≤ 0.2 |
| KRGI | ≤ 0.2 |
| RISH | ≤ 0.2 |
| GRPR | ≤ 0.2 |
| PLSF | ≤ 0.2 |
| QSGL | ≤ 0.2 |
| SEVA | ≤ 0.2 |
| QTKA | 0.708 |
| HCMW | ≤ 0.2 |
| KFPD | ≤ 0.2 |
| HGTA | ≤ 0.2 |
| WTQR | ≤ 0.2 |
| YRVC | ≤ 0.2 |

| Variant | one-hybrid fitness for binding NBS DNA |
| --- | --- |
| VPWR | ≤ 0.2 |
| CDTS | ≤ 0.2 |
| AKVN | ≤ 0.2 |
| CMLE | ≤ 0.2 |
| HYIR | ≤ 0.2 |
| AHEK | ≤ 0.2 |
| NDKD | ≤ 0.2 |
| HSLL | ≤ 0.2 |
| NQSV | ≤ 0.2 |
| HTGS | ≤ 0.2 |
| DTSE | ≤ 0.2 |
| LELN | ≤ 0.2 |
| QMTP | ≤ 0.2 |
| GMFL | ≤ 0.2 |
| VPRN | ≤ 0.2 |
| ECSN | ≤ 0.2 |
| TAWC | ≤ 0.2 |
| CQKA | ≤ 0.2 |
